# According to the BET-seq Pho4 binding data (Le et al. 2018):
# Some of the results follow. Values were computed here from the reads of four pooled replicates and scatter widely.
# Target: T1, Pho4 (S. cerevisiae) (UniProt P07270)
# T1 sequence: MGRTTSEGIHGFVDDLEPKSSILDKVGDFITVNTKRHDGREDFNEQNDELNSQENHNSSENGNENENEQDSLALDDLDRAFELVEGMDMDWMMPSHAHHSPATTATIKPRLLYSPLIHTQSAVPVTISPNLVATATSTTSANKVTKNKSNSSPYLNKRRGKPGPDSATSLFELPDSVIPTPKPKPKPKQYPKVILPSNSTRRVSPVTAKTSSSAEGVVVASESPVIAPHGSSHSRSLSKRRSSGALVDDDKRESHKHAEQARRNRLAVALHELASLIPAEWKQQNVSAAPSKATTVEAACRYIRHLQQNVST
# Experiment: relative binding free energy (BET-seq); higher = weaker binding
# Settings: reference: library average
row,Sequence,relative binding free energy
1,GTGGGCACGTGGTACG,-0.13 kcal/mol
2,AGGTGCACGTGTATGG,-0.04 kcal/mol
3,CAGAGCACGTGGGGGC,-0.24 kcal/mol
4,GTCTCCACGTGTTGGT,0.02 kcal/mol
5,CGGTTCACGTGGGTAC,0.16 kcal/mol
6,GTTTTCACGTGGCATT,0.14 kcal/mol
7,AAGAGCACGTGTGTGT,-0.22 kcal/mol
8,GGTGGCACGTGCAAAG,-0.08 kcal/mol
9,GTCGTCACGTGATGGA,0.15 kcal/mol
10,TGAAACACGTGTGTTG,-0.05 kcal/mol
11,TCGGTCACGTGTGGGG,0.16 kcal/mol
12,GTTGACACGTGGCGAG,-0.01 kcal/mol
13,TATGCCACGTGGCGGT,-0.07 kcal/mol
14,GGGATCACGTGCGGCG,0.11 kcal/mol
15,ACTTTCACGTGGGGCT,0.05 kcal/mol
16,TCGTACACGTGTAGTT,0.08 kcal/mol
17,TAGTGCACGTGGTTTA,-0.02 kcal/mol
18,AGAGACACGTGGGTAG,-0.12 kcal/mol
19,TTTGTCACGTGTTAAA,0.2 kcal/mol
20,TTTTACACGTGTTGAG,0.21 kcal/mol
21,CTGTGCACGTGTTAGA,-0.06 kcal/mol
22,CAAGGCACGTGATATG,0.07 kcal/mol
23,AGTTCCACGTGTAGGT,-0.03 kcal/mol

row,Sequence,relative binding free energy
1,ATATACACGTGATGGT,0.04 kcal/mol
2,GGAGCCACGTGGGGAG,-0.16 kcal/mol
3,TTGGACACGTGAACGT,0.24 kcal/mol
4,ATGTTCACGTGGGATA,0.22 kcal/mol
5,TATTGCACGTGGGAGG,-0.12 kcal/mol
6,TGGGCCACGTGGGTAG,-0.15 kcal/mol
7,TGATGCACGTGCGTGA,-0.17 kcal/mol
8,GGAAACACGTGTGGTA,0.05 kcal/mol
9,GCATGCACGTGATTGG,0 kcal/mol
10,TCTTGCACGTGGTTAT,-0.08 kcal/mol
11,TTGAACACGTGTTGGA,0.08 kcal/mol
12,GTGTGCACGTGGTTGG,0 kcal/mol
13,ACTTTCACGTGTAGGT,0.18 kcal/mol
14,TTAGTCACGTGGTGGT,0.17 kcal/mol
15,GGGGCCACGTGATAGT,0.06 kcal/mol
16,GGTGACACGTGAGTGC,0.2 kcal/mol
17,ATAGACACGTGATGGT,0.08 kcal/mol
18,TTTTACACGTGGGTGC,-0.03 kcal/mol
19,GTGTTCACGTGCTGCG,0.14 kcal/mol
20,ATGGACACGTGGGAAG,-0.08 kcal/mol
21,GTGGTCACGTGAGATA,0.4 kcal/mol
22,ATGGTCACGTGTCAAT,0.14 kcal/mol
23,GTGGTCACGTGTCGTG,0.14 kcal/mol

row,Sequence,relative binding free energy
1,GACGGCACGTGTGCGT,-0.04 kcal/mol
2,TCGGGCACGTGCCGGT,-0.11 kcal/mol
3,TGGTACACGTGGAGGC,0.16 kcal/mol
4,TCTCACACGTGGGGGT,-0.17 kcal/mol
5,GCGGGCACGTGGGTGA,-0.27 kcal/mol
6,TGGAACACGTGTCAGG,0.14 kcal/mol
7,CTGCGCACGTGTGGGA,-0.09 kcal/mol
8,TTTTTCACGTGGCATC,0.38 kcal/mol
9,GTTTTCACGTGCATAA,0.5 kcal/mol
10,GGATTCACGTGTTTGG,0.27 kcal/mol
11,GGATTCACGTGAAATG,0.5 kcal/mol
12,GTTGTCACGTGGATCT,-0.08 kcal/mol
13,TTTTTCACGTGTGTGC,0.33 kcal/mol
14,ATAAGCACGTGGTTTT,-0.14 kcal/mol
15,GGGTACACGTGAAATG,0.4 kcal/mol
16,ATGTTCACGTGTGGGC,0.34 kcal/mol
17,GTAAACACGTGGGTCG,0.01 kcal/mol
18,ATGGGCACGTGGCGCG,-0.18 kcal/mol
19,TCAGACACGTGGGAGT,-0.07 kcal/mol
20,TGCGTCACGTGTTGTT,0.16 kcal/mol
21,TTGCTCACGTGTGGTT,0.25 kcal/mol
22,AATCACACGTGTTGGT,-0.04 kcal/mol
23,GTAGTCACGTGTCGCT,0.12 kcal/mol

row,Sequence,relative binding free energy
1,TTTCACACGTGTGCGG,0.1 kcal/mol
2,ACTGTCACGTGACGGT,0.24 kcal/mol
3,CCTTTCACGTGTGTGT,0.2 kcal/mol
4,CGTAGCACGTGTTGAG,0.04 kcal/mol
5,GATTTCACGTGGAATT,0.49 kcal/mol
6,GGTATCACGTGAGCGT,0.35 kcal/mol
7,GTTCGCACGTGGGCTA,-0.1 kcal/mol
8,TGAGCCACGTGAAGGG,0.2 kcal/mol
9,TATCACACGTGGGTGG,-0.1 kcal/mol
10,GTAATCACGTGGCTGT,0.03 kcal/mol
11,TGGAGCACGTGGCGAG,-0.26 kcal/mol
12,TAGTCCACGTGGTATG,-0.08 kcal/mol
13,CGCTACACGTGAGGTG,0.28 kcal/mol
14,TGTTTCACGTGTAACG,0.32 kcal/mol
15,TGGTGCACGTGCTTCA,-0.09 kcal/mol
16,AAGGGCACGTGCAGGA,-0.15 kcal/mol
17,AATTGCACGTGTTAGG,0.05 kcal/mol
18,TTGTCCACGTGTGGCG,-0.06 kcal/mol
19,TCAGTCACGTGTGGTG,0.19 kcal/mol
20,TATTGCACGTGAGTTC,0.17 kcal/mol
21,GGGGTCACGTGGGACT,-0.03 kcal/mol
22,GAATGCACGTGGGATA,0.02 kcal/mol
23,GGTTACACGTGGATTA,0.06 kcal/mol

row,Sequence,relative binding free energy
1,GTTCGCACGTGGTATA,-0.06 kcal/mol
2,TTTTTCACGTGGGGGC,0.27 kcal/mol
3,TGAAGCACGTGAGTAT,0.18 kcal/mol
4,TAGTGCACGTGTATTG,-0.08 kcal/mol
5,GCTTGCACGTGTTTGA,0.08 kcal/mol
6,AAAATCACGTGATAGT,0.49 kcal/mol
7,ATAATCACGTGGGCTA,0 kcal/mol
8,ATTCACACGTGTTGTG,0.15 kcal/mol
9,TTTTACACGTGACTGT,0.23 kcal/mol
10,AATGTCACGTGCGGGT,-0.07 kcal/mol
11,TGTGACACGTGTTCGA,-0.02 kcal/mol
12,AGAATCACGTGTAAGT,0.23 kcal/mol
13,CGATTCACGTGGAAGG,0.31 kcal/mol
14,CTCGGCACGTGGTGGT,-0.2 kcal/mol
15,CGTGTCACGTGTTTTC,-0.01 kcal/mol
16,ATCTGCACGTGGCGGT,-0.12 kcal/mol
17,GTCTTCACGTGACGGT,0.49 kcal/mol
18,GTGAGCACGTGTTTAA,-0.14 kcal/mol
19,TGTCGCACGTGTGACT,0.02 kcal/mol
20,CTGATCACGTGGGGGA,0.01 kcal/mol
21,AGCTGCACGTGGTAGT,-0.02 kcal/mol
22,GAAGGCACGTGTCGGC,0.07 kcal/mol
23,ACTGTCACGTGTGGGG,0.18 kcal/mol
